One experiment relates to HSkMC. The experiment can be described thus: cytotoxicity call (relative viability < 0.9). As to conditions: 10 µM.
For a further experiment, the system named is HepG2. Description: cytotoxicity call (relative viability < 0.9). As to conditions: 10 µM.
In the next experiment the test system is S. aureus RN4220. Description: growth inhibition call (relative growth <= 0.2). The following applies: 50 µM.

From the antibiotic and cytotoxicity screens of Wong et al. (2023) come the findings set out here.

SMILES strings stand for the structures. The list shows a part of the results.

As for `Nc1ccc(-n2cnnn2)cc1`, the cytotoxicity call in the experiment with HSkMC and in the experiment with HepG2 was “inactive” each time. Moreover, the growth inhibition call with S. aureus RN4220 was “inactive”.
Consider `C[C@@H]1CN([C@@H](C)CO)C(=O)c2cc(NC(=O)CCN3CCOCC3)ccc2O[C@@H]1CN(C)C(=O)NC1CCCCC1`, for which the cytotoxicity call in the experiment with HSkMC and in the experiment on HepG2 was “inactive” throughout. The growth inhibition call in the experiment on S. aureus RN4220 is “inactive”.
`C[C@@H]1CN([C@@H](C)CO)C(=O)c2cc(NC(=O)Nc3cccc4ccccc34)ccc2O[C@@H](C)CCCCO[C@H]1CN(C)C(=O)CCCN(C)C`: the cytotoxicity call in the experiment with HSkMC and in the experiment with HepG2 was “inactive” in each case. The growth inhibition call in the experiment on S. aureus RN4220 was “inactive”.
On to `COc1ccc(-c2cnc3c(c2)C(=O)N([C@H](C)CO)C[C@H](C)[C@H](CN(C)C(=O)C2CCOCC2)O3)cc1`, for which the cytotoxicity call with HSkMC and with HepG2 was “inactive” in each case. In addition, the growth inhibition call in the experiment with S. aureus RN4220 was “inactive”.
In the case of `O=C(CN1CCOCC1)N[C@H]1CC[C@H](CCn2cc(C3CCCC3)nn2)O[C@H]1CO`, the cytotoxicity call with HSkMC and with HepG2 was “inactive” each time. Also, in the experiment on S. aureus RN4220, the growth inhibition call was “inactive”.
As for `CCOC(=O)N1CCN(C(=O)CN(C)S(=O)(=O)c2ccc3c(c2)c(=O)n(C)c(=O)n3C)CC1`, the cytotoxicity call with HSkMC and with HepG2 was “inactive” throughout. In addition, in the experiment on S. aureus RN4220, the growth inhibition call is “inactive”.
For `O=C(C[C@@H]1CC[C@@H]2[C@H](COC[C@@H](O)CN2S(=O)(=O)c2ccccc2)O1)NCc1ccc2c(c1)OCO2`, the cytotoxicity call in the experiment with HSkMC and with HepG2 was “inactive” throughout. Further, the growth inhibition call in the experiment with S. aureus RN4220 is “inactive”.
Take `Cc1noc(C)c1NC(=O)N(C)C[C@H]1OCCCC[C@@H](C)Oc2ccc(NS(=O)(=O)c3ccc(Cl)cc3)cc2C(=O)N([C@@H](C)CO)C[C@H]1C`: the cytotoxicity call with HSkMC and in the experiment with HepG2 was “inactive” each time. Also, in the experiment with S. aureus RN4220, the growth inhibition call was “inactive”.
Take `O=C(C[C@@H]1CC[C@@H](NC(=O)CN2CCOCC2)[C@H](CO)O1)NCCc1ccncc1`: the cytotoxicity call in the experiment with HSkMC and in the experiment on HepG2 was “inactive” throughout. In addition, the growth inhibition call with S. aureus RN4220 is “inactive”.
Take `C[C@@H]1CN([C@@H](C)CO)C(=O)c2cc(NC(=O)NC3CCCCC3)ccc2O[C@H]1CN(C)C(=O)Nc1cccc2ccccc12`: the cytotoxicity call in the experiment with HSkMC and with HepG2 was “inactive” each time. Moreover, the growth inhibition call with S. aureus RN4220 was “inactive”.
Take `Cc1noc(C)c1S(=O)(=O)Nc1ccc2c(c1)CC(=O)N([C@H](C)CO)C[C@H](C)[C@@H](CN(C)S(=O)(=O)c1ccc(Cl)cc1)O2`: the cytotoxicity call in the experiment on HSkMC and with HepG2 was “inactive” in each case. Besides, the growth inhibition call with S. aureus RN4220 is “inactive”.
As for `CCCN1C[C@H](C)[C@H](OC)CN(C)C(=O)c2cc(NS(=O)(=O)c3cn(C)cn3)ccc2OC[C@@H]1C`, the cytotoxicity call in the experiment with HSkMC and in the experiment on HepG2 was “inactive” throughout. Moreover, in the experiment with S. aureus RN4220, the growth inhibition call is “inactive”.
Turning to `COCC#Cc1ccc2c(c1)O[C@@H](CN(C)Cc1ccc3c(c1)OCO3)[C@@H](C)CN([C@@H](C)CO)S2(=O)=O`, the cytotoxicity call with HSkMC and with HepG2 was “inactive” in each case. Moreover, in the experiment with S. aureus RN4220, the growth inhibition call is “inactive”.
Turning to `COCCNC(=O)C[C@H]1C[C@H]2c3cc(NC(=O)COC)ccc3O[C@H]2[C@H](CO)O1`, the cytotoxicity call with HSkMC and in the experiment with HepG2 was “inactive” each time. In the experiment on S. aureus RN4220, the growth inhibition call was “inactive”.
Consider `C[C@@H]1CN([C@H](C)CO)C(=O)c2cc(NC(=O)Cn3cnnn3)ccc2O[C@H]1CN(C)Cc1ccncc1`, for which the cytotoxicity call with HSkMC and in the experiment on HepG2 was “inactive” throughout. In addition, in the experiment on S. aureus RN4220, the growth inhibition call is “inactive”.
In the case of `COc1ccc(NC(=O)Nc2ccc3c(c2)C(=O)N([C@H](C)CO)C[C@@H](C)[C@@H](CN(C)C(=O)Nc2ccc4c(c2)OCO4)OCCCC[C@@H](C)O3)cc1`, the cytotoxicity call in the experiment with HSkMC and in the experiment with HepG2 was “inactive” in each case. Further, the growth inhibition call in the experiment on S. aureus RN4220 was “inactive”.
`C[C@@H]1CN([C@H](C)CO)C(=O)c2cc(NS(=O)(=O)c3ccc(F)cc3)ccc2O[C@@H](C)CCCCO[C@H]1CN(C)CC1CCCCC1`: the cytotoxicity call with HSkMC was “inactive”. Besides, the cytotoxicity call in the experiment with HepG2 was “active”. The growth inhibition call in the experiment with S. aureus RN4220 is “inactive”.
`C[C@H](CO)N1C[C@H](C)[C@@H](CN(C)Cc2ccccc2)OCCCC[C@H](C)Oc2ccc(NS(=O)(=O)c3cccs3)cc2C1=O`: the cytotoxicity call in the experiment on HSkMC and with HepG2 was “inactive” throughout. Also, in the experiment with S. aureus RN4220, the growth inhibition call is “inactive”.
For `COCCNC(=O)C[C@@H]1C[C@H]2c3cc(NC(=O)Nc4ccc(C(F)(F)F)cc4)ccc3O[C@H]2[C@H](CO)O1`, the cytotoxicity call in the experiment with HSkMC and with HepG2 was “inactive” throughout. In addition, the growth inhibition call with S. aureus RN4220 is “inactive”.
`COc1ccccc1S(=O)(=O)N(C)C[C@H]1Oc2cc(C#CCC(C)C)ccc2S(=O)(=O)N([C@@H](C)CO)C[C@@H]1C`: the cytotoxicity call with HSkMC and in the experiment on HepG2 was “inactive” throughout. The growth inhibition call with S. aureus RN4220 was “inactive”.
As for `CN(C)CCCNC(=O)[C@H]1[C@H](CO)[C@H]2Cn3c(ccc(-c4ccncc4)c3=O)[C@@H]1N2C(=O)C1CC1`, the cytotoxicity call with HSkMC and in the experiment on HepG2 was “inactive” throughout. Besides, the growth inhibition call in the experiment with S. aureus RN4220 was “inactive”.
Turning to `O=C(O)CCC/C=C\C/C=C\C/C=C\C/C=C\CCCCCO`, the cytotoxicity call in the experiment with HSkMC and with HepG2 was “inactive” in each case. In addition, the growth inhibition call with S. aureus RN4220 is “inactive”.
On to `C[C@@H]1CCCCO[C@@H](CN(C)Cc2ccc(C(=O)O)cc2)[C@H](C)CN([C@H](C)CO)C(=O)c2cc(NS(=O)(=O)c3cccs3)ccc2O1`, for which the cytotoxicity call with HSkMC and in the experiment with HepG2 was “inactive” each time. Besides, the growth inhibition call in the experiment on S. aureus RN4220 is “inactive”.
In the case of `C[C@@H]1CN([C@H](C)CO)C(=O)Cc2cc(NC(=O)CCC(F)(F)F)ccc2O[C@@H]1CN(C)Cc1ccc(C(=O)Nc2ccccc2N)cc1`, the cytotoxicity call in the experiment on HSkMC and in the experiment on HepG2 was “inactive” throughout. Moreover, in the experiment with S. aureus RN4220, the growth inhibition call was “inactive”.
Take `C[C@H](CO)N1C[C@H](C)[C@H](CN(C)C(=O)NC2CCCCC2)Oc2c(NC(=O)Nc3cccc4ccccc34)cccc2C1=O`: the cytotoxicity call with HSkMC is “active”. In addition, the cytotoxicity call in the experiment with HepG2 was “inactive”. Further, the growth inhibition call with S. aureus RN4220 was “inactive”.
For `COc1cccc(NC(=O)N2C[C@@H](O)COC[C@@H]3O[C@@H](CC(=O)NCc4ccccc4F)CC[C@H]32)c1`, the cytotoxicity call in the experiment with HSkMC and with HepG2 was “inactive” each time. Moreover, in the experiment with S. aureus RN4220, the growth inhibition call is “inactive”.
With `C[C@H]1CN([C@@H](C)CO)C(=O)Cc2cc(NC(=O)Nc3cccc4ccccc34)ccc2O[C@H]1CN(C)CC1CCCCC1`, the cytotoxicity call in the experiment on HSkMC and with HepG2 was “active” in each case. The growth inhibition call with S. aureus RN4220 was “inactive”.
As for `CN1C(=O)N[C@@H]2c3ccccc3O[C@@]1(COC(=O)NCCCCCC(=O)NO)[C@@H]2COC(=O)c1ccccc1`, the cytotoxicity call in the experiment on HSkMC (human skeletal muscle cells) and in the experiment with HepG2 was “inactive” each time. The growth inhibition call in the experiment on S. aureus RN4220 is “inactive”.
